# Experimental data from PubChem BioAssay AID463173 (ICCB-Longwood Screening Facility, Harvard Medical School, 2010).
# Among all 52,000 compounds or so, about 1,700 (3.3%) were called active. No stated cut-off is given here; in the data, active means survival mostly below about 52% (no sharp cut-off); inactive means mostly above about 56%. Some of the results follow.
# System: Wild type
# Assay: growth inhibition of S. aureus wild type versus tarO mutant, primary screen, teichoic acid synthesis inhibitors, RN4220, OD600 (AID 463173)
# Details: S. aureus RN4220 wild type/DeltatarO growth, OD600, 18 h, stronger effect = lower value, screened at 18.75 µg/mL (by protocol)
row,Structure (SMILES),survival
1,CCC(=O)NC1CCN(C(=S)NC)CC1,inactive: 88%
2,COc1ccccc1CCNC(=O)C(=O)NCC(c1ccco1)S(=O)(=O)c1ccc(F)cc1 (configuration not stated),inactive: 73%
3,Cn1c2ccccc2c2c(C(=O)N3CCN(c4cccc(Cl)c4)CC3)cn(C3CCCCC3)c(=O)c21,inactive: 80%
4,COc1ccc(OC)c(CCNC(=O)c2cc3cccc4c3n2CC(C)S4)c1 (configuration not stated),inactive: 59%
5,Cn1c(=O)c2c(nc(CN3CCN(c4ccccc4F)CC3)n2Cc2ccccc2F)n(C)c1=O,inactive: 89%
6,O=C1C(=O)N(C2CCN(S(=O)(=O)c3ccccc3)CC2)CCN1Cc1ccccc1,inactive: 73%
7,Cc1nc2ccc(C(=O)O)cc2c2c1CC(C)S2 (configuration not stated),inactive: 102%
8,COc1cccc(N2CCN(C(=O)C3CCCN(S(=O)(=O)c4ccc5c(c4)oc(=O)n5C)C3)CC2)c1 (configuration not stated),inactive: 83%
9,O=C(NCc1ccc2c(c1)CCN2C(=O)c1ccncc1)c1ccccc1Cl,inactive: 72%
10,CCSc1ncc(Cl)c(C(=O)Nc2ccc(S(=O)(=O)Nc3ncccn3)cc2)n1,inactive: 90%
11,CC(C)(C)CC(=O)Nc1nnc(-c2ccccc2)s1,inactive: 103%
12,COc1cccc(CNC(=O)CCCn2ncn3c(cc4occc43)c2=O)c1OC,inactive: 112%
13,COC(=O)CN1C(=O)CSc2ccc(S(=O)(=O)Nc3cccc(C)c3)cc21,inactive: 95%
14,COCCn1nnnc1C(c1ccncc1)N1CCCC1 (configuration not stated),inactive: 119%
15,Cc1cccc(C(=O)Nc2nc3nc(-c4ccccc4)cc(=O)n3[nH]2)c1,inactive: 95%
16,CCOc1ccc(CCNC(=O)C2CCN(Cc3nc(-c4ccc(OC)c(OC)c4)oc3C)CC2)cc1OCC,inactive: 85%
17,COc1cc(-c2nc(-c3ccc4c(c3)[nH]c(=O)n4C)no2)cc(OC)c1OC,inactive: 83%
18,CCOc1ccccc1NC(=O)C1CCN(S(=O)(=O)c2ccc3[nH]c(=O)ccc3c2)CC1,inactive: 45%
19,COc1ccc(-n2c(/C=C/c3cccc(C(F)(F)F)c3)nc3ccccc3c2=O)cc1Cl,inactive: 73%
20,COc1ccc(C2SCCN2S(=O)(=O)c2ccc(NC(C)=O)cc2)cc1OC (configuration not stated),inactive: 99%
21,Cn1cc(S(=O)(=O)N2CCCCCC2)cc1C(=O)N1CCN(c2cccc(C(F)(F)F)c2)CC1,inactive: 73%
22,CCC(=O)N1CCc2cc(Br)cc(S(=O)(=O)N3CCCC(C(=O)NCc4ccc(F)cc4)C3)c21 (configuration not stated),inactive: 89%

row,Structure (SMILES),survival
1,Cc1ccn2c(=O)cc(COc3ccc(NC(=O)COc4ccccc4)cc3)nc2c1,inactive: 70%
2,Cc1ccc(S(=O)(=O)N2CCN(Cc3cc(Br)ccc3O)CC2)cc1,inactive: 82%
3,N#Cc1ccccc1NC(=O)C(=O)NCCc1csc(-c2ccc(C(F)(F)F)cc2)n1,inactive: 80%
4,COc1cc(NC(=O)C2CCCCC2)c(OC)cc1NC(=O)CCC(=O)NCc1ccco1,inactive: 102%
5,O=C1CSC2(C(=O)N(Cc3ccccc3)c3ccccc32)N1c1cccc(F)c1 (configuration not stated),inactive: 68%
6,CCc1ccc(NC(=O)COC(=O)CCCC2=NS(=O)(=O)c3ccccc3N2)cc1,inactive: 129%
7,CCOC(=O)CS(=O)(=O)c1nc2c(c(C(F)(F)F)n1)CCc1ccccc1-2,inactive: 106%
8,COc1ccc(-c2nnc(SCC(=O)Nc3cc(OC)ccc3OC)nc2-c2ccc(OC)cc2)cc1,inactive: 66%
9,Cc1ccc2nc(COc3ccccc3NC(=O)c3ccccc3C)cc(=O)n2c1,inactive: 71%
10,Cc1cccc(CCNC(=O)c2ccc3c(c2)nc2n3CCC(C)C2)c1 (configuration not stated),inactive: 73%
11,COc1ccc(OC)c(NC(=O)c2ccc3c(SCC(=O)O)c4c(nc3c2)CCCC4)c1,inactive: 68%
12,COc1ccc(CCn2c(=O)c3cccnc3n(CC(=O)Nc3c(C)cccc3C)c2=O)cc1OC,inactive: 76%
13,CCc1cccc(C)c1NC(=O)Cn1c(=O)n(-c2ccc(C)cc2)c(=O)c2c1cnn2C,inactive: 80%
14,O=S(=O)(c1ccc(Cl)cc1)c1nc(-c2cccc(Br)c2)oc1NCc1ccccc1,inactive: 98%
15,O=C(c1ccco1)N1CCN(c2nc3c(F)cc(F)cc3s2)CC1,inactive: 120%
16,Cc1cccc(-c2noc(-c3ccc(NCc4ccco4)c([N+](=O)[O-])c3)n2)c1,inactive: 86%
17,COc1cccc(-c2ccc(-c3noc(-c4ccccc4Br)n3)c(OC)n2)c1,inactive: 37%
18,CCC(=O)N1c2ccccc2CC1C(=O)NCc1cccc(OC)c1OC (configuration not stated),inactive: 77%
19,CCC(C)(C)C(=O)Nc1ccc(Cl)cc1,inactive: 119%
20,COc1cc(OC)cc(C(=O)Nc2cc(-c3nc4ccccc4[nH]3)ccc2C)c1,inactive: 79%
21,CCOC(=O)C1CCCN(c2nc3c(S(=O)(=O)c4ccc(Br)cc4)nnn3c3ccsc23)C1 (configuration not stated),inactive: 78%
22,O=C(/C=C/c1ccco1)Nc1ccc(F)cc1,inactive: 69%

row,Structure (SMILES),survival
1,COC(=O)c1c(SC)nc2ccccc2c1OCc1ccc(Br)cc1,inactive: 47%
2,O=c1c2sccc2n(Cc2cc(=O)n3ccccc3n2)c(=O)n1-c1cc(F)ccc1F,inactive: 75%
3,CCn1nc(-c2ccccc2)c(-c2ccccc2)c(C(=O)Nc2ccc(S(N)(=O)=O)cc2)c1=O,inactive: 82%
4,COc1ccc(C(=O)Nc2ccc(-c3nnc4n3CCCCC4)cc2)cc1,active: -3%
5,COc1cccc2c1Oc1ncccc1N(C(=O)CCC(=O)NCCC(C)C)C2,inactive: 73%
6,Cc1ccccc1CNC(=O)c1nn(-c2ccccc2F)nc1CO,inactive: 87%
7,O=S(=O)(c1ccc(Cl)cc1)c1nc(-c2ccccc2Br)oc1NCc1ccccc1,inactive: 96%
8,Cc1cc(C)c(NC(=O)CSc2nc3ccccc3c3nc(CCn4cncc4C)nn23)c(C)c1,inactive: 72%
9,CCN1CCN(C(=O)c2ccc3c(c2)N(Cc2cccc(Cl)c2)C(=O)c2ccccc2S3=O)CC1 (configuration not stated),inactive: 81%
10,CCN(CC)CCCNc1cc(-c2ccccc2)nc(C)n1,inactive: 85%
11,Cc1ccc(C)c(OCCn2c(C3CC(=O)N(Cc4ccc(F)cc4)C3)nc3ccccc32)c1 (configuration not stated),active: -16%
12,COc1ccc(CCNC(=O)CSc2nc3nc(C)c(Cc4ccc(C)cc4)c(C)n3n2)cc1OC,inactive: 65%
13,Cc1ccc(/C=C/C(=O)Nc2nc(-c3cccs3)ns2)cc1,inactive: 82%
14,COc1ccc(-n2cc(C(=O)N(CCN(C)C)Cc3ccccc3)c3ccccc3c2=O)cc1,inactive: 92%
15,CCOc1ccc2nc(N3CCN(C(=O)c4ccc(S(=O)(=O)CC)cc4)CC3)sc2c1,inactive: 87%
16,COc1ccc(Cn2c(=O)[nH]c3cc(C(=O)NCCC(C)C)ccc3c2=O)cc1,inactive: 74%
17,CCn1c(C)c(C)c2cc(C(=O)NCCCN3CCCCC3C)ccc21 (configuration not stated),inactive: 65%
18,COc1ccc(CNC(=O)CS(=O)Cc2nc(-c3ccc(OC)c(OC)c3)oc2C)cc1 (configuration not stated),inactive: 90%
19,Cc1ccc(N(CC(=O)Nc2cccc(Cl)c2C)S(=O)(=O)c2c(C)noc2C)cc1,inactive: 74%
20,COc1cc(C(=O)N(Cc2ccc(F)cc2)Cc2ccco2)cc(OC)c1OC,inactive: 108%
21,COc1cccc(-n2c(SCc3ccc(F)cc3)nc3c([nH]c4ccccc43)c2=O)c1,inactive: 101%
22,Cc1ccc2nc(-c3ccc(Cl)s3)c(Nc3ccc4c(c3)OCCO4)n2c1,inactive: 81%

row,Structure (SMILES),survival
1,COC(=O)c1ccc(NC(=O)CN(C)S(=O)(=O)c2ccc(Br)s2)cc1,inactive: 72%
2,COc1ccc(Cn2ccnc2SCC(=O)Nc2nnc(C)s2)cc1,inactive: 115%
3,Cc1nn2c(C)c(C(=O)NCc3ccc(OC(C)C)cc3)cnc2c1-c1ccc(F)cc1,inactive: 76%
4,CCn1c(=O)cc(OCC(=O)N2CCN(c3cccc(C)c3C)CC2)c2ccccc21,inactive: 131%
5,Cc1cccc(NC(=O)CN2C(=O)C(c3ccc(F)cc3)=NC23CCCCCC3)c1,inactive: 98%
6,COc1cccc(CNC(=O)CN2C(=O)COc3ccc(S(=O)(=O)N4CCOCC4)cc32)c1,inactive: 98%
7,Cc1ccc(CNC(=O)c2ccc(N3CCCC3)c(NC(=O)Nc3ccc(F)c(Cl)c3)c2)cc1,inactive: 77%
8,Cc1ccc2c(c1)-c1c(c(C(=O)N3CCN(c4cc(C)ccc4C)CC3)nn1C)CS2,inactive: 88%
9,CCN(CCCNC(=O)c1nn(-c2ccc(C)cc2)c(=O)c2c1c1ccccc1n2C)c1cccc(C)c1,inactive: 83%
10,Cc1ccc(CNC(=O)C(C)n2nc(C)c3sc4ccccc4c3c2=O)cc1 (configuration not stated),inactive: 105%
11,Cc1cc(C)c(NC(=O)Cn2c(=O)n(Cc3ccc(C(=O)NCc4ccc5c(c4)OCO5)cc3)c(=O)c3ccccc32)c(C)c1,inactive: 83%
12,COc1ccc(NC(=O)Cn2c(=O)c3ccccc3n3nncc23)c(OC)c1,inactive: 85%
13,CC(=O)c1c(C)oc2c1cc(NS(=O)(=O)c1ccc(C(C)(C)C)cc1)c1ccccc12,inactive: 50%
14,COc1ccc(NC(=O)c2cc(S(=O)(=O)N3CCCC3)ccc2OC)cc1,inactive: 77%
15,COC(=O)c1ccccc1NC(=O)CN1C(=O)COc2ccc(Cl)cc21,inactive: 62%
16,COc1cccc(C(=O)Oc2c(Sc3ccc(C)cc3)c(C)nn2C(C)(C)C)c1OC,inactive: 23%
17,Clc1ncnc2c1oc1ccccc12,inactive: 118%
18,CC(C)Cc1nn2c(=O)cc(COC(=O)c3ccc(NC(=O)C4CCCCC4)cc3)nc2s1,inactive: 73%
19,O=C(Oc1ccccc1)c1ccc2nccnc2c1,inactive: 122%
20,O=C(CNS(=O)(=O)c1ccc(Cl)cc1)NN=C1CCCCC1,inactive: 106%
21,CCOc1ccccc1NC(=O)c1ccc(F)c(S(=O)(=O)N2CCN(c3ccc(F)cc3)CC2)c1,inactive: 60%
